Assay results as given in patent publication US12122821B2, “Regulation of glucose metabolism using anti-CGRP antibodies” (H. LUNDBECK A/S, priority 2013, dated 2024).

What was measured:
[1] = system: HFD rats; test: Body weight and food intake in high fat/high fructose diet (HFD) rats (Example 2); type: in vivo, rat; settings: vs HFD vehicle
Protocol: (§1) After 6 weeks of HFD rats were randomized to treatment groups according to their glucose intolerance (AUC calculation during an oral glucose tolerance test (OGTT)) and their HOMA-IR (insulin resistance index).
(§2) Body weight and food consumption were measured 3 times per week until 10 days of treatment. HOMA-IR was measured on day 10 and 15. A 2-step clamp (5 mU/kg/min and then 15 mU/kg/min insulin) was performed on day 15 or 16. Glucose Turnover (GTO) was assessed using ^3H-glucose tracer infusion during the clamp procedure.
(§3) Ab14 (10, 30, 100 mg/kg) and the vehicle were weekly administered via i.v. route (via the caudal vein, under isoflurane anaesthesia), in the morning, on day 1 and day 8 of treatment.
Body weight was measured once a week during the first six week of HFD. Body weight was measured 3 times per week during the first 10 days of treatment. Food consumption was measured over 48 h or 72 h, just before treatment and 3 times per week during treatment until surgery procedure (day 11).

[2] = system: Zucker diabetic fatty (ZDF) rat; test: Pancreas insulin and proinsulin content in ZDF rats (Example 3); type: in vivo; settings: day 28, AB14 60 mg/kg, metformin 200 mg/kg/day, alone or combined, vs vehicle
Protocol: After 2 hours of food restriction (from 8:00 am to 10:00 am) 80 rats from the study were anesthetized on day 28 with isoflurane. Blood was collected (˜3000 μL from abdominal vein, on K2-EDTA) for the determination of AB14 plasma concentrations. Plasma (3 aliquots of ˜200 μL) was kept at −80° C. until testing. The pancreas tissue was then excised. Rats were euthanized by incision of the abdominal vein and aorta.
Each pancreas was divided into 2 parts (longitudinal cut).
Each pancreas sample was homogenized in an acid buffer, and insulin and proinsulin content were measured using ELISA kits in the following groups: […]

[3] = system: Normal rats; test: Individual tissue glucose utilization rate (14C-2-DOG) during clamp in normal rats (Example 1); type: in vivo, rat; settings: Ab14 100 mg/kg i.v., vs vehicle
Protocol: To determine the individual tissue glucose utilization rate, a bolus injection of 100 μCi per rat of deoxy-D-glucose 2-^14C (^14C-2-DOG) through the femoral vein was performed 60 min before the end of the D-[3-^3H]-glucose infusion. Plasma ^14C-2-DOG disappearance and glucose concentration were determined in 10 μL drops of blood sampled from the tip of the tail vein at 0, 5, 10, 15, 20, 25, 30, 45, and 60 minutes after the injection. At the end of the experiment, vastus lateralis (VL), extensor digitorum longus (EDL) and soleus muscles, epididymal and inguinal white adipose tissues, heart apex, and skin (as negative control) were dissected, flash frozen and kept at −80° C. A piece of each tissue was dissolved in 1M NaOH and then neutralized with 1M HCl. […]. D-2-^14C deoxyglucose was differentially precipitated by the use of a zinc hydroxide (0.3M) solution or a perchloric acid solution (6%). Both radioactivity contents were measured to evaluate the glucose uptake expressed as ng/mg/min.

[4] = system: Zucker diabetic fatty (ZDF) rat; test: Fasting blood glucose, plasma insulin, C-peptide and HOMA-IR in ZDF rats (Example 3); type: in vivo; settings: vs vehicle ZDF; for decrease of fasting blood glucose: after 12, 19 or 26 days, n.s; for increase of plasma insulin levels: ns
Protocol: For the groups treated with AB14, the antibody was administered once weekly via the caudal vein (i.v., 5 mL/kg) on days 1, 8, 15, and 22 at two different doses 20 mg/kg/week (groups 3 and 7) or 60 mg/kg/week (groups 4 and 8). All other groups were treated once weekly with vehicle 1 (i.v., 5 mL/kg). The intravenous treatments were performed in the morning on day 1, 8, 15, and 22 while under isoflurane anaesthesia. The volume of administration was individually adapted according to the most recent body weight.
All other groups were treated daily with vehicle 2 (p.o., 5 mL/kg) for 28 days. The most recent body weight was used to calculate the average volume of administration in each group.
A fasting (6 hours on day 0 from 8:00 am to 02:00 pm, and overnight on day 12, 19 and 26 from ˜6:00 pm to ˜8:00 am) was performed before each blood collection. Blood was collected at ˜2:00 pm, from the tip of the tail, on day 0 (before screening, 150 μL, potassium EDTA), and at ˜8:00 am prior to dosing on days 12 (110 μL, potassium EDTA), 19 (150 μL, potassium EDTA) and 26, (110 μL, potassium EDTA).
Fasting blood glucose (glucometers) was measured on days 0, 12, 19, and 26. Fasting plasma insulin, peptide-C (ELISA method), free fatty acids, triglycerides, total cholesterol (colorimetric method), and HDL-cholesterol (phosphotungstate precipitation, colorimetric method) were measured on day 0, and prior to dosing on days 12, 19, and day 26. Non HDL-cholesterol was calculated as total cholesterol—HDL-cholesterol. Fructosamine was measured on days 0, 19 and 28. HbA1c (DCA 2000) was measured on days 0 and 28.

[5] = system: HFD rats; test: Fasting blood glucose, plasma insulin, C-peptide and HOMA-IR in HFD rats (Example 2); type: in vivo, rat; settings: vs HFD vehicle
Protocol: as §1, §2, §3
Before the start of the treatment (the day of OGTT) and on day 10 of treatment, all rats were fasted from 08:00 am. At 01:30 pm, blood was collected from the from the tip tail (40 μL on EDTA). Blood glucose (using glucometers) and plasma insulin (ELISA method) were measured.
Plasma insulin and C peptide levels were measured just before the infusion starts (˜T-30 min.), at the end of the steady state of step 1 (T2 h) and step 2 (T3.5 h). For that, blood collection was performed from the tip of the tail (˜100 μL, on EDTA).

[6] = Ab14 10, 30, 100 mg/kg/week i.v., metformin 200 mg/kg/day
[7] = days 12, 19 and 26, AB14 20 mg/kg
[8] = day 10, Ab14 10, 30, 100 mg/kg/week, metformin 200 mg/kg/day

B1: Ab14: humanized anti-CGRP antibody consisting of the light and heavy polypeptide chains of SEQ ID NOs 132 and 134 (protein)
light: QVLTQSPSSLSASVGDRVTINCQASQNVYNNNYLAWYQQKPGKVPKQLIYSTSTLASGVPSRFSGSGSGTDFTLTISSLQPEDVATYYCLGSYDCSRGDCFVFGGGTKVEIKRTVAAPSVFIFPPSDEQLKSGTASVVCLLNNFYPREAKVQWKVDNALQSGNSQESVTEQDSKDSTYSLSSTLTLSKADYEKHKVYACEVTHQGLSSPVTKSFNRGEC
heavy: EVQLVESGGGLVQPGGSLRLSCAVSGIGLSSYYMQWVRQAPGKGLEWVGVIGSDGKTYYATWAKGRFTISRDNSKTTVYLQMNSLRAEDTAVYFCTRGDIWGQGTLVTVSSASTKGPSVFPLAPSSKSTSGGTAALGCLVKDYFPEPVTVSWNSGALTSGVHTFPAVLQSSGLYSLSSVVTVPSSSLGTQTYICNVNHKPSNTKVDARV[here human IgG1 Fc with changes without letters]
Q: Which results are given for B1?
A: body weight ([1]; 10 days of treatment, Ab14 10, 30, 100 mg/kg/week i.v., metformin 200 mg/kg/day): no effects; body weight gain ([1]; Ab14 30 mg/kg, metformin 200 mg/kg): slightly decreased; decrease of cumulative food consumption [1, 6]: no effect; food consumption (follow-up food intake) [1, 6]: no effect; pancreas proinsulin levels [2]: completely prevented reductions; pancreatic insulin levels [2]: slightly increased; change of glucose utilization in the heart ([3]; metformin 500 mg/kg p.o.): 21%; glucose utilization rate in white adipose tissues (deep and subcutaneous) ([3]; metformin 500 mg/kg p.o.): did not affect; increase of glucose utilization in mixed vastus lateralis muscle (VL) ([3]; metformin 500 mg/kg p.o.): 70%; increase of glucose utilization in glycolytic extensor digitorum longus muscle (EDL) ([3]; metformin 500 mg/kg p.o., NS): 26%; increase of glucose utilization in oxidative soleus muscle ([3]; NS): 27%; decrease of fasting blood glucose ([4]; AB14 20 mg/kg/week): about 15%; decrease of fasting blood glucose ([4]; AB14 60 mg/kg/week): about 15%; increase of plasma C-peptide levels ([4]; day 12, AB14 60 mg/kg alone or + metformin 200 mg/kg/day): 10%; increase of plasma insulin levels ([4]; day 12, AB14 60 mg/kg): 74%; increase of plasma insulin levels ([4]; day 19, AB14 60 mg/kg): 21%; increase of plasma insulin levels ([4]; day 26, AB14 60 mg/kg): 19%; HOMA-IR [4, 7]: did not change; plasma C-peptide levels [4, 7]: did not change; plasma insulin levels [4, 7]: did not change; plasma C-peptide levels ([4]; days 19 and 26, AB14 60 mg/kg): no effect; decrease of HOMA-IR [5, 8]: no effect; decrease of fasting plasma insulin [5, 8]: no effect; fasting blood glucose [5, 8]: no effect; decrease of HOMA-IR ([5]; day 15, Ab14 10 mg/kg): 33%; decrease of plasma C-peptide level ([5]; day 15, Ab14 10 mg/kg): 30%; decrease of fasting plasma insulin ([5]; day 15, Ab14 10 mg/kg, ns): 26%; decrease of HOMA-IR ([5]; day 15, Ab14 30 mg/kg): 17%; decrease of plasma C-peptide level ([5]; day 15, Ab14 30 mg/kg): 23%; decrease of fasting plasma insulin ([5]; day 15, Ab14 30 mg/kg, ns): 16%; decrease of HOMA-IR ([5]; day 15, Ab14 100 mg/kg): 38%; decrease of plasma C-peptide level ([5]; day 15, Ab14 100 mg/kg): 29%; fasting blood glucose ([5]; day 15, Ab14 100 mg/kg): significant decreasing effect; decrease of fasting plasma insulin ([5]; day 15, Ab14 100 mg/kg, ns): 18%
